The record followed here is PubChem BioAssay AID485344 (National Center for Advancing Translational Sciences (NCATS), 2010).

The structures appear in SMILES notation. Hit rate of the full screen: of about 340,000 compounds, about 6,900 (2%) were called active. Rule as the data show it: active = inhibition above about 30%; inactive = below that, where a call was filed. This is a selection; strong and weak results do not stand in their true shares. The source gives no active or inactive call for entries shown without one.

UniProt P14416, sequence (P14416 whole entry, looked up): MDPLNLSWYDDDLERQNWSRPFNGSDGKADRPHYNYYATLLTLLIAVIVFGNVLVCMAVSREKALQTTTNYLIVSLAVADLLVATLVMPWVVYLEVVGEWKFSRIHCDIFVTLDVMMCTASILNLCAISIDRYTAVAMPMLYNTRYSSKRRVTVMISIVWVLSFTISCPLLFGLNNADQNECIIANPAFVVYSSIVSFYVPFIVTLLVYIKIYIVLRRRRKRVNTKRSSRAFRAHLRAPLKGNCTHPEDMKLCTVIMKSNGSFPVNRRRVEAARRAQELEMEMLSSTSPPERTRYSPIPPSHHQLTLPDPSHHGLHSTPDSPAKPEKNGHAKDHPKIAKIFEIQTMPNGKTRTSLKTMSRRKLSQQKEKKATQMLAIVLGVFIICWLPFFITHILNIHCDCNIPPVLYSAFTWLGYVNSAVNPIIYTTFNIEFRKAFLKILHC

In the test the target is D(2) dopamine receptor (Homo sapiens) (UniProt P14416). As to the kind of experiment: HTS Assay for Allosteric Antagonists of the Human D2 Dopamine Receptor: Primary Screen for Antagonists. Also: 0% is about no effect. The following applies: HEK293 TREx D2 cells, calcium flux, dopamine EC80; at 10 µM; stronger effect = higher value. The gist of the method:
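Overnight-induced (tetracycline, 30 C) HEK293 T-REx cells carrying force-coupled D2 receive a no-wash calcium dye, then compound, then EC80 dopamine at 180 s; signals are read kinetically throughout.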
(Calcium assays in cells follow changes in intracellular calcium, usually with a dye or a luminescent sensor.)
As a reminder, the inhibition is the change of the read-out against control, counted positive when it falls. Turning to `O=C(O)c1cc(-n2c(/C=C\c3ccc(F)cc3)nc3ccccc3c2=O)ccc1Cl`, the inhibition came out at 21.8%.
Turning to `O=C(NCc1ccc(Cl)cc1)c1cnc(N2CCCCC2)c2ccccc12`, the inhibition came to 18.4%.
As to `Cc1ccc(Cc2nc3ccccc3nc2SCC(=O)Nc2ccc3c(c2)OCO3)cc1`, the inhibition was 4.33%.
Turning to `Cc1nc(N2CCOCC2)c2c(C(=O)Nc3cccc(C(F)(F)F)c3)c(C)oc2n1`, the inhibition worked out at 3.92%.
Take `Cc1ccc(S(=O)(=O)NCCS(=O)(=O)N2CCN(c3ccccc3)CC2)cc1`: the inhibition came to 4.31%.
Regarding `COc1ccc(CNC(=O)C2CCN(Cc3nc(-c4ccc(Cl)cc4)oc3C)CC2)cc1`, the inhibition is -2.5%.
With `O=C(NC1CC(=O)N(c2cccc(F)c2)C1)c1ccc(Br)o1` (stereo unspecified) the figure was 15.2%.
Consider `CSc1ccc(CCNC(=O)CCc2c(C)nc3c(c(C)nn3-c3ccccc3)c2C)cc1`, for which the inhibition was 11%.
Under `O=C(Nc1cccc(F)c1)c1ccc2snnc2c1` stands 3.35%.
With `Cc1ccc(C)c(Nc2nnc(-n3nc(C)cc3C)c3ccccc23)c1` the figure was -8.79%; with `CCN(c1ccccc1)S(=O)(=O)c1nnc(NC(=O)c2cccs2)s1`, -20.6%.
Under `Cc1ccc(-n2nc(C(=O)N3CCC(C)CC3)c(=O)n(C)c2=O)cc1` stands 12%; under `COc1cc(C(=O)Nc2ccc3nc(SCc4ccc(C)cc4)sc3c2)cc(OC)c1OC`, -11.8%.
In the case of `CCCC(=O)N1CCN(c2nc3c(OC)ccc(C)c3s2)CC1`, the inhibition was 15.9%.
With `CCOc1ccc(-n2c(SCC(=O)N3CCOCC3)nc3c([nH]c4ccccc43)c2=O)cc1` the figure was 21%.
Under `CC(C)(C)OC(=O)N1CCC(c2c(C(=O)N3CCN(C(=O)c4ccco4)CC3)cnn2-c2cccc(F)c2)CC1` stands 5.57%; under `COc1cccc(O)c1CN1CCCC(C(=O)c2cccc(C(F)(F)F)c2)C1` (stereo unspecified), active: 48.6%; under `COc1cc2[nH]c(=S)nc(NCc3ccc(C)cc3)c2cc1OC`, active: 40.6%.
For `CCC(=O)NCc1cc(-c2nn(C)c(=O)c3ccccc23)ccc1OC`, the inhibition stood at 13.6%.
With `Cc1ccc(C)c(NC(=O)c2ccc3nc(CCc4ccccc4)oc3c2)c1` the figure was -3.5%; with `O=C(CSc1n[nH]c(-c2ccccc2Cl)n1)N1CCN(c2ccccc2)CC1`, 3.24%; with `CCOC(=O)CNS(=O)(=O)c1cc(-c2nnc(Nc3cccc(O)c3)c3ccccc23)ccc1C`, -11%.
Consider `CCCc1ccc(C2Sc3ccccc3NC3=C2C(=O)c2ccccc23)cc1` (stereo unspecified), for which the inhibition is 22.7%.
Under `Cc1cc(NC(=O)c2cccs2)cc(-c2nc3cc(Cl)ccc3o2)c1O` stands -9.83%; under `O=C(c1cccc(Br)c1)N1CCN(c2ccc(N3CCOCC3)nn2)CC1`, active: 32.9%; under `Cc1ccc(NC(=O)c2ccc(=O)n(CC(=O)Nc3cccc(C)c3)n2)cc1`, 22.2%.
For `O=C(c1ccco1)[C@@H]1[C@@H]2C(=O)N(c3ccc(F)cc3)C(=O)[C@@H]2[C@H]2C=Cc3ccccc3N21`, the inhibition is active: 42.6%.
For `Cc1cccc(C(c2sc3nc(-c4ccco4)nn3c2O)N2CCN(c3ccccc3)CC2)c1` (stereo unspecified), the inhibition is -21.9%.
Under `CCOc1ccccc1CNS(=O)(=O)c1ccc(-c2coc(C)n2)cc1` stands -6.83%.
As to `COC(=O)c1ccccc1NC(=O)c1cc2nc(-c3ccc(OC)cc3)cc(C(F)(F)F)n2n1`, the inhibition amounted to 2.15%.
As to `Cc1ccc(NC(=O)c2ccc(NC(=O)N3CCSc4nc(C)cc(C)c43)cc2)c(Cl)c1`, the inhibition amounted to 7.58%.
With `CC1CCCCN1C(=O)Cn1c(SCC(=O)N(C)c2ccccc2)nc2ccccc21` (stereo unspecified) the figure was -8.69%.
Consider `CCn1cc(CNC(=O)c2cc(-c3ccc(C)c(C)c3)nc3ccccc23)c(C)n1`, for which the inhibition came out at 5.1%.
Under `COc1ccc(-c2noc(CSc3nnc(-c4ccncc4)n3-c3ccc(C)cc3)n2)cc1OC` stands 2.87%; under `O=C(Cn1c(=O)n(Cc2ccc3c(c2)OCO3)c(=O)c2oc3ccccc3c21)Nc1ccc(F)cc1`, -3.4%; under `Cc1cccc(NC(=O)CCc2c(C)nc3nc(CNC(=O)c4cccc(F)c4)nn3c2C)c1`, -2.34%.
With `Cn1c(=O)c2c(ncn2CC(=O)Nc2cccc(C(F)(F)F)c2)n(C)c1=O` the figure was -4.34%.
With `COc1ccc(Cn2c(SCc3ccc(C(=O)NC4CCCC4)cc3)nc3cccnc32)cc1` the figure was 13.7%.
As for `CC(C)(C)c1ccc(-c2nc3cc(NC(=O)c4cccc(Br)c4)ccc3o2)cc1`, the inhibition was -2.01%.
As for `CCc1ccc(S(=O)(=O)NCCc2csc3nc(-c4ccccc4)nn23)s1`, the inhibition worked out at 19.6%.
With `COc1ccc(-n2ccn(CC(=O)NCCc3ccccc3)c(=O)c2=O)cc1OC`, the inhibition is 19.4%.
With `COc1cccc(CNC(=O)Cn2ncc3c4ccccc4n(Cc4ccccc4)c3c2=O)c1` the figure was 0.171%; with `COc1ccccc1CN(Cc1ccco1)c1cnc(S(C)(=O)=O)nc1C(=O)Nc1cc(C)ccc1C`, 3.51%; with `O=C(NCCc1csc2nc(-c3ccc(F)cc3)nn12)c1cccc(C(F)(F)F)c1`, 5.25%.
With `COc1cccc(C(=O)NCc2nc(-c3ccccc3)no2)c1OC` the figure was 8.41%; with `O=C(/C=C/c1ccc(OC(F)F)cc1)OCC(=O)N1CCC(c2ccccc2)=N1`, active: 38.6%; with `CCOc1ccccc1NC(=O)c1c(NC(=O)c2ccccc2)sc2c1CCCC2`, 1.42%.
Consider `CCOc1ccccc1CNC(=O)c1cnc2sc(N3CCCCCC3)nn2c1=O`, for which the inhibition was -4.88%.
On to `O=C(Cn1cc(SCc2cccc(Cl)c2)c2ccccc21)N1CCCCCC1`, for which the inhibition amounted to 6.88%.
As to `Cc1ccc(S(=O)(=O)N(C)C)cc1NC(=O)COC(=O)C1CCN(S(=O)(=O)c2cccs2)CC1`, the inhibition is active: 35.4%.
With `COc1cc(Cl)c(C)cc1NC(=O)c1ccc2c(Cl)c3c(nc2c1)CCC3` the figure was 3.18%; with `CCOc1cccc(CC(=O)N2CCc3c([nH]c4ccccc34)C2c2ccc(Cl)cc2)c1OCC` (stereo unspecified), 13.4%.
Under `CC1CCN(C(=O)CSc2nc(-c3ccccc3)no2)CC1` stands 9.83%; under `COc1cc(C(=O)N2CCC(c3nc4ccccc4o3)CC2)cc(OC)c1OC`, 16.8%; under `Cc1c(NS(=O)(=O)c2ccccc2)cc(C(C)C)c(O)c1S(=O)(=O)c1ccc(Cl)cc1`, 4.3%.
Under `COc1ccc(C(c2c(O)cc(C)n(Cc3ccco3)c2=O)N2CCCCC2)cc1OC` (stereo unspecified) stands -5.58%; under `C(=C\c1ccccc1)/CN1CCN(C(c2ccccc2)c2ccccc2)CC1`, active: 52.7%.
As for `COc1ccc(CCNc2ncnc3c2cnn3-c2ccc(C)cc2)cc1`, the inhibition is 23.6%.
With `CN1C(=O)c2ccccc2Sc2ccc(NC(=O)COc3ccc(F)cc3)cc21` the figure was 10.1%; with `OC(COc1ccc(Cl)c2ccccc12)CN1CCN(c2ccccn2)CC1` (stereo unspecified), active: 35.5%.
Under `Cc1ccc(N2CC(C(=O)Nc3cccnc3)CC2=O)cc1C` (stereo unspecified) stands active: 31.1%; under `Fc1ccc(CN2CCc3nc(Nc4ccccc4)ncc3C2)cc1F`, 10.2%; under `COc1ccc(C2C(=O)N(C3CCCCCC3)CC(=O)N2Cc2ccc(C)cc2)cc1OC` (stereo unspecified), -14.3%.
Under `Cc1ccc(CNC(=O)CSc2cc(C)[nH]c(=O)n2)cc1` stands -18.4%; under `O=C(NCc1ccco1)c1ccc2c(c1)N(Cc1cccc(Cl)c1)C(=O)c1ccccc1S2(=O)=O`, 9.75%; under `COc1ccc(-c2noc(CNC(=O)c3ccco3)n2)cc1`, 4.63%.
Consider `Cc1nn(-c2ccccc2)c2nc(C3CC3)cc(C(=O)Nc3ccccc3F)c12`, for which the inhibition was found to be 3.44%.
Under `COc1ccccc1C1CCN(Cc2ccc(C)cc2)CC1` stands active: 95.1%.
Under `CCOc1ccc(C(=O)c2cn(Cc3ccccc3OC)c3ccc(F)cc3c2=O)cc1` stands 4.49%.
Under `COc1ccc(S(=O)(=O)N2CCC(Oc3ccc(-n4cnnn4)cc3)CC2)cc1OC` stands -4.42%; under `CCOc1ccc(N(CC(=O)NCc2ccccc2Cl)S(=O)(=O)c2c(C)[nH]c(=O)[nH]c2=O)cc1`, -1.86%; under `COc1cc(CN2CCN(CCCc3ccccc3)CC2CCO)cc(OC)c1` (stereo unspecified), active: 65.3%.
As for `CC(=O)Nc1ccc(NC(=O)CSc2nc3ccccc3nc2N2CCOCC2)cc1`, the inhibition is -10.7%.
Under `Oc1c(C(c2ccccc2Cl)N2CCCC2)sc2nc(-c3ccco3)nn12` (stereo unspecified) stands -2.66%; under `CCc1ccc(NC(=O)CN(c2ccc(OC)cc2)S(=O)(=O)c2c(C)[nH]c(=O)[nH]c2=O)cc1`, -9.9%.
With `Clc1ccccc1CN1CCN(c2ncccn2)CC1`, the inhibition is active: 75.8%.
Regarding `COc1ccc(-n2c(CC3C(=O)N(C)c4ccc(C)cc43)nc3ccccc3c2=O)cc1` (stereo unspecified), the inhibition turned out to be 8.77%.
Under `O=S(=O)(c1ccccc1)N1CCN(C(=S)NCCc2ccccc2)CC1` stands active: 38.4%; under `Cc1ccc(NC(=O)/C=C/c2ccc(C)o2)c(C)c1`, 5.78%; under `Cc1ccccc1OCC(=O)OCC(=O)Nc1ccc(Cl)cn1`, active: 30.6%.
For `CCCn1c(N)c(NCCN2CCOCC2)c(=O)n(CC(=O)NCc2ccccc2)c1=O`, the inhibition was active: 32.7%.
Take `Cc1cc(C(F)F)n2nc(C(=O)Nc3c(C)cccc3C)nc2n1`: the inhibition amounted to 7.23%.
Regarding `O=c1c2c(-c3ccccc3)ccnc2[nH]n1-c1ccccc1`, the inhibition was -2.39%.
With `Cc1nn(C(=O)c2c(F)cccc2F)c(C)c1S(=O)(=O)N1CCOCC1` the figure was -6.18%.
With `CCCC1=Nc2cc(C(=O)NC(C)c3ccccc3)ccc2Sc2ccc(C)cc21` (stereo unspecified), the inhibition is 9.95%.
Turning to `COCCN1C(=O)c2[nH]nc(-c3ccccc3O)c2C1c1ccc(Cl)c(Cl)c1` (stereo unspecified), the inhibition is -7.97%.
Regarding `O=C(CCN1N=C(c2ccccc2)CCC1=O)NCCc1ccc(Cl)cc1`, the inhibition was -16.1%.
With `COc1ccc(CCNC(=O)c2ccc3c(c2)N(Cc2ccccc2F)C(=O)c2ccccc2S3(=O)=O)cc1OC` the figure was -11.7%; with `CCOC(=O)c1cnc2c(ccc3ccccc32)c1Nc1cccc(OC)c1`, -7.54%; with `O=C(NCCc1ccccc1)c1cc(S(=O)(=O)N2CCCCC2)c[nH]1`, -3.95%.
With `Cc1cccc(N(C)S(=O)(=O)c2ccc3c(c2)C(C)(C)C(=O)N3C)c1` the figure was active: 40.9%.
With `COc1ccc(NC(=O)c2cc(S(=O)(=O)N3CCCC3)cn2C)cc1Cl` the figure was active: 38%.
Consider `COc1ccc(-c2nnc(SCC(=O)NCc3ccc(C)cc3)nc2-c2ccc(OC)c(OC)c2)cc1OC`, for which the inhibition is -12.5%.
Under `O=C(CSc1nc(-c2ccc(F)cc2)[nH]c1-c1ccccc1)NCC1CCCO1` (stereo unspecified) stands -28.2%.
As for `COc1ccccc1N1CCN(c2ncccc2-c2nc(-c3ccc(Cl)cc3)no2)CC1`, the inhibition amounted to 5.67%.
Under `CN(C)Cc1c(C(=O)Nc2ccccc2)[nH]c2ccccc12` stands active: 45%.
